B1: mAb1: "the sequences of the heavy chain and light chain of mAb1 can be found in SEQID: 39 and SEQID: 40" (antibody)
heavy: QVQLVQSGAEVKKPGASVKVSCKASGYTFTDYAMHWVRQAPGQRLEWMGLISTYSGDTKYNQNFQGRVTMTVDKSASTAYMELSSLRSEDTAVYYCARGDYSGSRYWFAYWGQGTLVTVSS[human IgG1 constant region not spelt out]
light: DIQMTQSPSSLSASVGDRVTITCQASENIYGALNWYQRKPGKSPKLLIYGASNLATGMPSRFSGSGSGTDYTFTISSLQPEDIATYYCQQVLSSPYTFGGGTKLEIKRTVAAPSVFIFPPSDEQLKSGTASVVCLLNNFYPREAKVQWKVDNALQSGNSQESVTEQDSKDSTYSLSSTLTLSKADYEKHKVYACEVTHQGLSSPVTKSFNRGEC
B2: ADC-34 (conjugate)
heavy: EVQLVESGGGLVQPGGSLRLSCAASGFTFSSYNMNWVRQAPGKGLEWVSYISSSSSTIYYADSVKGRFTISRDNAKNSLSLQMNSLRDEDTAVYYCARAYYYGMDVWGQGTTVTVSSASTKGPSVFPLAPSSKSTSGGTAALGCLVKDYFPEPVTVSWNSGALTSGVHTFPAVLQSSGLYSLSSVVTVPSSSLGTQTYICNVNHKPSNTKVDKRV[human IgG1 Fc not spelt out]
light: DIQMTQSPSSVSASVGDRVTITCRASQGISGWLAWYQQKPGKAPKFLIYAASTLQSGVPSRFSGSGSGTDFTLTISSLQPEDFATYYCQQANSFPPTFGGGTKVEIKRTVAAPSVFIFPPSDEQLKSGTASVVCLLNNFYPREAKVQWKVDNALQSGNSQESVTEQDSKDSTYSLSSTLTLSKADYEKHKVYACEVTHQGLSSPVTKSFNRGEC

Legend:
CEACAM5/6 (H2122 cells) = assay: Binding of antibody or ADC to H2122 cells (CEACAM5/6+) by flow cytometry; details: cell binding, MFI by flow cytometry
Experimental: First of all, HCC1954 cells (HER2 positive, Cat. No. CRL-2338) (purchased from the cell bank of American Type Culture Collection, ATCC) were normally cultured in an RPMI-1640 medium (Gibco, Cat. No. A1049101) with 10% fetal bovine serum (FBS) (Gibco, Cat. No. A5669701) in a cell culture incubator at 37° C. and 5% CO2. […] The dissociated cells were collected, and centrifuged. The cells were resuspended in a staining buffer (PBS (Gibco, Cat. No. C20012500BT)+2% FBS) at 4° C., and were added to a V-bottom 96-well plate (BD Falcon) at 1.0×10^5 cells/well and 50 μL/well. […] The plate was incubated at 4° C. for 1.0 hour. After the centrifugation at 300 g for 5 minutes, the supernatant was aspirated, and the pellet was resuspended in 200 μL/well of staining buffer and washed twice. The PE-labeled anti-human IgG Fc antibody (Biolegend, 410708) diluted in a staining buffer was added at 100 μL/well and incubated in the dark at 4° C. for 45 minutes. […]
Fluorescence signals were detected on a BD FACSCanto™ II flow cytometer (BD Biosciences) to obtain the mean fluorescence intensity (MFI) of the binding of the antibody or antibody-drug conjugate to cells, and the half maximal effective concentration (EC50) values were then obtained using the Log (agonist) vs. response equation in the GraphPad Prism software (GraphPad Software). […]

MDA-MB-436 cell line = assay: Inhibition of cell proliferation by ADC products in vitro; type: cell-based; details: 6 days, read-out: IC50, nM MDA-MB-436 cell line (Nectin-4−)
Experimental: HCC1954 cells (HER2 positive, purchased from the cell bank of ATCC, Cat. No. CRL-2338) were normally cultured in a RPMI-1640 medium (Gibco, Cat. No. A1049101) with 1000 fetal bovine serum (FBS) (Gibco, Cat. No. A5669701) in a cell culture incubator at 37° C. and 500 CO2; and MDA-MB-468 cells (HER2 negative, purchased from Cell Resource Center, Shanghai Academy of Biological Sciences, Chinese Academy of Sciences) were both normally cultured in a DMEM medium with 10% fetal bovine serum (FBS) in a cell culture incubator at 37° C. and 5% CO2. The cells were added to a 96-well plate at 1.0×10^3 cells/well and 100 μL/well and incubated in a cell culture incubator at 37° C. and 500 CO2. […]
The OD450 optical density values were read on an EnVision™ multi-function microplate reader (PerkinElmer), and the inhibition rates (%) of the test antibody-conjugated drugs were calculated. […]
After 6 days of treatment with the antibody-conjugated drugs to be tested, 50 μL/well of CellTiter-Glo® reagent (Promega, Cat. No. G9243) was added to the wells, mixed thoroughly with shaking and incubated for 10 minutes. Chemiluminescence values were read on an EnVision™ multi-function microplate reader (PerkinElmer). […]

Molecule	EC50 (CEACAM5/6 (H2122 cells)) [nM]	IC50 (MDA-MB-436 cell line) [nM]
B1	7.94	
B2		15.3

Source: patent US20260048138A1, “NOVEL PI3K AND/OR PIKK INHIBITORS, ANTIBODY-DRUG CONJUGATES COMPRISING THE SAME AND USES THEREOF” (HUTCHMED LIMITED, priority 2024, published 2026)
